# Source: the supplement of paper PMC10338343
# ± gives the standard deviation. Over roughly 3,700 sequences, “pre-steady-state target cleavage rate” has its median near 0.02; the highest 2% begin near 0.23. Only a part is listed here, and it is no random draw.
# Test system: MILI (PIWIL2) piRISC loaded with Kctd7 piRNA (26 nt)
# Experiment: pre-steady-state target cleavage rate (min^-1); MIWI and MILI are mouse PIWI proteins and EfPiwi is from a freshwater sponge; tags in brackets are library labels; higher = faster piRNA-guided slicing of the target
# Settings: guide: Kctd7 piRNA 5'p-UGUUAAUCUCUCAGAGAAGGUGACAG; auxiliary factor: 500 nM mouse GTSF1
# Method in brief: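 The method was Cleave-'n-Seq, in which uncleaved targets from a transcribed, DNA-blocked target RNA library were sequenced after exposure to active affinity-purified piRISC carrying one synthetic guide, with or without GTSF1 partner protein. Reactions contained 0.1 nM library, 1 nM piRISC and, where present, 500 nM GTSF1 in HEPES–potassium acetate buffer at 33 °C for 0–8 or 0–960 min. Reads were normalised to depth and to weakly complementary targets, three trials were pooled, and k3 was capped at 0.0001 min^-1. The pre-steady-state cleavage rate came from a burst-and-steady-state fit.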
row,Sequence,pre-steady-state target cleavage rate
1,UAGUGUCUCACCAUCUCUGAGAGAUUAACA,0.158 ± 0.014
2,UAGUGAGUCACCUUCUCUGAGAGAAAAACA,0.0915 ± 0.023
3,UAGUGACACACCUUCUCUGAGAGAUCUAACA,0.128 ± 0.041
4,UAGUGAGUCACCUUCUCUCAGAGAAUAACA,0.00872 ± 0.004
5,UAGUGUGUCACCUUCUGACAGAGAUUAACA,0.0232 ± 0.0081
6,UAGUCUGUCUCGUUCUCUGAGAGAUUAACA,0.159 ± 0.0079
7,UAGUGACAGACCUUCUCAGAGAGAUUAACA,0.0341 ± 0.0075
8,UAGUGACUCACCUUCUCUGAGACUUUAACA,0.013 ± 0.0046
9,UAGUGACUCACCUACUCUGAGAGAUUUACA,0.0886 ± 0.013
10,UAGUGAGUCACCUUCUCUGUCUGAUUAACA,0.00417 ± 0.0037
11,UAGUGACUCAGCAUCUCUGAGAGAUUAACA,0.0133 ± 0.0029
12,UAGUGACUCACCAACUCUGAGAGAUUAACA,0.0544 ± 0.0074
13,UAGUGUGACUCCUUCUCUGAGAGAUUAACA,0.151 ± 0.011
14,UAGUGUCUCACCUUCUCUGAGUGAUUAACA,0.005 ± 0.0038
15,UAGUCUGUCACCAUCUCUGUGAGAUUAACA,0.0404 ± 0.0047
16,UAGUGACAGUCCUUCUCUGAUAGAUUAACA,0.0206 ± 0.0043
17,UAGUGACUGACCUUGUCUGAGAGAUUAACA,0.111 ± 0.033
18,UAGUGACAGUCCUUCUCUGAGAGAUUCACA,0.0193 ± 0.0065
19,UAGUGAGUCACCUUCUCUGAGAGAUUAAAA,0.135 ± 0.037
20,UAGUGACACACGUACUCUGAGAGAUUAACA,0.0246 ± 0.0043
21,UAGUGAGUCACCUUGUCUGAGAGAUUAUCA,0.0297 ± 0.013
22,UAGUGUCUCACCUUCUCUGUGAGAUUAACA,0.0376 ± 0.006
23,UAGUGACUCUCCUUCUCUGUGAGAUUAACA,0.0317 ± 0.0023

row,Sequence,pre-steady-state target cleavage rate
1,UAGUCUGUCACGUUCUGUGAGAGAUUAACA,0.0502 ± 0.0053
2,UAGUGACAGUCCUUCUCUGUGAGAUUAACA,0.033 ± 0.0057
3,UAGUGACUCACGUUCUCUGAGACAUUAACA,0.00354 ± 0.0025
4,UAGUGACUCACCUACACUGAGAGAUUAACA,0.0735 ± 0.0063
5,UAGUGACAGUCCUUCUCUGAGAGAUUAAAA,0.00926 ± 0.0045
6,UAGUGACACUCCUUCUCUGAGACAUUAACA,0.0456 ± 0.0059
7,UAGUGAGUCACCUUCUGAGAGAGAUUAUGA,0.0241 ± 0.0098
8,UAGUGAGUCUCCUUCUCUGAGACAUUAACA,0.0525 ± 0.0096
9,UAGUGUGUCACCUUCACUGACAGAUUAACA,0.062 ± 0.0083
10,UAGUGACACAUCCUUCUCUGAGAGAUUAACA,0.101 ± 0.017
11,UAGUGAGUCACCAUCUCUGAGUGAUUAACA,0.00578 ± 0.0041
12,UAGUGACAGACGUUCUCUGAGAGAUUUACA,0.0633 ± 0.015
13,UAGUGACAGUGGUUCUCUGAAAGAUUAACA,< 0.0001
14,UAGUGAAUCACCUUCUCUGAGAGAUUAACA,0.232 ± 0.03
15,UAGUGAGUCAGCUUCUCUGAGACAUUAACA,0.0393 ± 0.0064
16,UAGUGUGUCACGUUCUCUGAGAGAUUUACA,0.0913 ± 0.017
17,UAGUGUGUCACCUUCUGUGAGAGAUAAACA,0.0484 ± 0.015
18,UAGUGACUCACCUUCUUUGAGAGAUUAACA,0.208 ± 0.015
19,UAGUCAGUCUCCUUCUCUGAGAGAUUAACA,0.162 ± 0.011
20,UAGUGACACACCUUCUCUUAGAGAUUAACA,0.0759 ± 0.0074
21,UAGUCUGUCAGCUUCUCUGAGAGAUUUACA,0.0747 ± 0.011
22,UAGUGACAGACCUACACUGAGAGAUUAACA,0.0226 ± 0.0077
23,UAGUCUGUCACCUUGUCUGAGAGUUUAACA,0.059 ± 0.018

row,Sequence,pre-steady-state target cleavage rate
1,UAGUGACACACCUUCUCUGAGAGAUUAACC [g2:g22:cont:t1C],0.143 ± 0.022
2,UAGUGACUCAGCUUCUCUGAGAGAUUAACA,0.0935 ± 0.0069
3,UAGUCUGUCACCUAGUCUGAGAGAUUAACA,0.126 ± 0.012
4,UAGUGAGUCACCUUCUCUGAGAGAUGAACA,0.111 ± 0.029
5,UAGUGACAGACCUUCUCAGUGAGAUUAACA,0.00677 ± 0.0043
6,UAGUGACACACCUUCUGUGAGAGAUUAUGA,0.029 ± 0.012
7,UAGUCUGUCACCGUUCUCUGAGAGAUUAACA,0.133 ± 0.0094
8,UAGUGAGACACCUUCUCUGAGAGAUUAACA,0.185 ± 0.011
9,UAGUGACAGUGGUUCCUCUGAGAGAUUAACA,0.00471 ± 0.0018
10,UAGUGACAGUGCUUCUCUGAGAGAUCAACA,0.00536 ± 0.0024
11,UAGUGACAGACCUUCUCUGAGAGUUUAACA,0.0464 ± 0.011
12,UAGUGUGUGUCCUUCUCUGAGAGAUUAAGA,0.00638 ± 0.0038
13,UAGUGACACACAUUCUCUGAGAGAUUAACA,0.076 ± 0.01
14,UAGUGACUCACCUUCUCUGAGAGAAAAACA,0.0439 ± 0.017
15,UAGUCUGUCACGUUCUCUCAGAGAUUAACA,0.0372 ± 0.0049
16,UAGUGACAGUCCUUCGCUGAGAGAUUAACA,0.0352 ± 0.0063
17,UAGUGACAGUCCUUCUUCUGAGAGAUUAACA,0.00966 ± 0.0033
18,UAGUGACAGACCUUCUCUGAGAGAUUUACA,0.0731 ± 0.015
19,UAGUGACUGACCUUCUCUGAGAGUUUAACA,0.0895 ± 0.025
20,UAGUGACUGACCUUCUCUCAGAGAUUAACA,0.0436 ± 0.012
21,UAGUGACAGUGGAUCUCAGAGACAUUAACA,< 0.0001
22,UAGUGAGAGACCUUCUCUGAGAGAUUAACA,0.0931 ± 0.013
23,UAGUGAGUCACCUUCACUGAGAGAUAAACA,0.0245 ± 0.0095

row,Sequence,pre-steady-state target cleavage rate
1,UAGUGAGUCACGAACUCUGAGAGAUUAACA,0.0731 ± 0.0043
2,UAGUCUGUCACUUUCUCUGAGAGAUUAACA,0.188 ± 0.0089
3,UAGUGACAGACCUUCACUGAGAGAUAAACA,0.018 ± 0.0081
4,UAGUGUGUCACCUUCUCUGAGAGAUUUAACA,0.391 ± 0.052
5,UAGUGACUCACCUUCUCUGAGAGAAUUAACA,0.19 ± 0.035
6,UAGUGACUCUCCUUCUCUGAGAGAUUAUCA,0.0488 ± 0.0084
7,UAGUGACACACCUUCAGUGAGAGAUUUUGA,0.00783 ± 0.0054
8,UAGUGACAGUCCUUGUCUCAGAGAUUAACA,0.009 ± 0.0037
9,UAGUCUGUCACCUUGUCUGAGAGAUAAACA,0.0456 ± 0.012
10,UAGUCUCACACCUUCUCUGAGAGAUUAAGA,0.0183 ± 0.007
11,UAGUGACAGUGGAUCUCUGAGAGUUAAACA,< 0.0001
12,UAGUGUGUCAGCUUCUCUCAGAGAUUAACA,0.0558 ± 0.0084
13,UAGUGAGUCACCUUCUCUGAGAGAUUAACCA,0.219 ± 0.017
14,UAGUCUCUGACCUUCUCUGAGAGAUUAACA,0.111 ± 0.0053
15,UAGUGAGUGACCUACUCUGAGAGAUUAACA,0.111 ± 0.011
16,UAGUGACAGACCUUCUCUGCGAGAUUAACA,0.0565 ± 0.016
17,UAGUGUGUCACCUUCUCAGAGAGAUUAUGA,0.0821 ± 0.027
18,UAGUGUGUCACCUUCUCUGAGACGAUUAACA,0.0543 ± 0.011
19,UAGUGACAGACCUUCUCUGAGAGAUUCACA,0.0634 ± 0.023
20,UAGUGACUGACGUUCUCUGAGAGAUUAACA,0.127 ± 0.01
21,UAGUGUGUCACCAUCUCUGAGAGAUUAAGA,0.0441 ± 0.013
22,UAGUGACUCAGCUUCACUGAGAGAUUAACA,0.103 ± 0.018
23,UAGUGACACACCUUCUCUGUGAGAAUAACA,0.0221 ± 0.0087
